{
  "source": "patent US20090104178A1",
  "about": "(published 2009)",
  "binders": {"B1": {"name": "hCCL20 (ligand)", "chemokine": "not shown"}},
  "molecular_target": "Purified recombinant EV CrmD protein (ectromelia virus)",
  "data": [
    {"binder": "B1", "values": [
      {"measurement": "Kd", "result": 4.3, "unit": "nM"}
    ]}
  ]
}
